# About 6,400 (1.6%) of roughly 410,000 compounds were called active. The inconclusive results got no clear call from the source; some entries with a clear call stand among them for comparison. Calls come from the whole dose curve; as a rule, active = well fitted inhibition curve with a large enough effect; inconclusive = small, poorly fitted or top-dose-only effect; inactive = no such curve, though single readings can be large or run the other way. No potency is given beside an inconclusive call; the fits are too rough.
# Biological target: Glucagon-like peptide 1 receptor (Homo sapiens) (UniProt P43220)
# Test: qHTS of GLP-1 Receptor Inverse Agonists (Inhibition Mode); note: nearly all actives have a fitted effect of over 55% in size
# Details: HEK293 GLP-1R CRE-luciferase, luminescence, 24 h; Potency: GLP-1R form is constitutively active unless noted; series mostly up to 38.3 µM
# Procedure, shortened: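 Cells are plated, allowed 12 hours at 37 deg C, then treated with compounds for 24 hr before luciferase detection reagent is added and luminescence is read after 12 min at room temperature. The HEK293 line carries constitutively active GLP-1R with a cAMP-responsive reporter.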
# Potency is the fitted concentration of half-maximal effect; tags give direction and shape of the fitted curve.
# Chain of UniProt P43220 (P43220 whole entry, looked up): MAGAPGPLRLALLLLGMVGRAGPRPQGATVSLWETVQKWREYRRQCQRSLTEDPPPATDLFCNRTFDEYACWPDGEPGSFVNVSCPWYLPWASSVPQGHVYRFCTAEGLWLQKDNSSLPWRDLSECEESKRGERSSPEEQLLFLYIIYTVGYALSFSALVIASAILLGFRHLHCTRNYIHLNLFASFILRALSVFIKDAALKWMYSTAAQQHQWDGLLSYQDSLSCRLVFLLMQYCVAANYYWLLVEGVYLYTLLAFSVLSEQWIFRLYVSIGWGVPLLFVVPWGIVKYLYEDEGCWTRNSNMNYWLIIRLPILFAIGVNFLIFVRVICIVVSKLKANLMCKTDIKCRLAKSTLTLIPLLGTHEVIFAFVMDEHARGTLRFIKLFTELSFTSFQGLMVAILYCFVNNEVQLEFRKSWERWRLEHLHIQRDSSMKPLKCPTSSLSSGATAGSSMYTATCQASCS
row,SMILES,Potency
1,Cc1ccc(C2CC3CCC(C2)N3Cc2ccccc2F)cc1 (stereo not given),"inconclusive [inhibitor, single point]"
2,Cc1ccc2c(c1)[C@@H]1CN(C)CC[C@@H]1N2C(=O)Nc1cccc(C(F)(F)F)c1,"inconclusive [inhibitor, partial curve, poor fit]"
3,Cc1cccc(CN2CCCC(C(=O)c3ccc(C(F)(F)F)cc3)C2)n1 (stereo not given),"inconclusive [inhibitor, full curve, poor fit]"
4,COc1ccc(CC(C)NCCC(c2ccccc2)c2ccccc2)cc1 (stereo not given),"inconclusive [inhibitor, single point]"
5,CN1CC(C(=O)c2ccc([N+](=O)[O-])cc2)C(c2ccc(Cl)cc2)C1 (stereo not given),"inconclusive [inhibitor, single point]"
6,CCOC(=O)[C@]12Cc3cc4ccccc4cc3[C@H]1N(Cc1ccccc1)C(=O)c1cc(OC)ccc12,"inconclusive [inhibitor, partial curve, poor fit]"
7,Clc1ccc(CNC2CN3CCC2CC3)cc1 (stereo not given),"inconclusive [inhibitor, partial curve, poor fit]"
8,COc1ccc2[nH]cc(CCNCc3cccnc3)c2c1,inactive
9,CCOC(=O)CC(SP1(=S)OCC2(CCCCO2)C(C2CCCCO2)O1)C(=O)OCC (stereo not given),"inconclusive [inhibitor, partial curve, poor fit]"
10,Cc1ncoc1C(=O)NCCC(c1ccccc1)c1ccccc1,"inconclusive [inhibitor, partial curve, poor fit]"
11,O=C(Cn1ncc2c3ccccc3n(Cc3ccc(F)cc3)c2c1=O)N1CCC2(CC1)OCCO2,"inconclusive [inhibitor, partial curve, poor fit]"
12,Cc1ccc2nc(-c3ccc(CN4CCC(n5c(=O)[nH]c6ccccc65)CC4)cc3)c(-c3ccccc3)nc2c1,"inconclusive [inhibitor, partial curve, poor fit]"
13,O=C(COc1ccc(Br)cc1)N1CCN(Cc2ccc3c(c2)OCO3)CC1,"inconclusive [inhibitor, partial curve, poor fit]"
14,CCC(C(=O)OCCOCCN(CC)CC)c1ccccc1 (stereo not given),"inconclusive [inhibitor, partial curve, poor fit]"
15,O=C(c1cccc(C(F)(F)F)c1)C1CCCN(Cc2ncc[nH]2)C1 (stereo not given),"inconclusive [inhibitor, partial curve]"
16,CCCC1=Nc2cc(C(=O)NC3CCC(C)CC3)ccc2Sc2ccccc21 (stereo not given),"inconclusive [inhibitor, full curve]"
17,O=C(CN1C(=O)CN=C(c2ccccc2)c2ccccc21)Nc1cccc(C(F)(F)F)c1,"inconclusive [inhibitor, single point]"
18,Fc1ccccc1CCNCc1cccc2ccccc12,"inconclusive [inhibitor, single point]"
19,CCOC(=O)[C@]12Cc3cc(C)ccc3[C@H]1N(CCC(=O)OC)C(=O)c1cc(OC)ccc12,"inconclusive [inhibitor, single point]"
20,COc1c(OP2(=S)OCC(C)(C)CO2)cnn(C2CCCCC2)c1=O,"inconclusive [inhibitor, full curve]"

row,SMILES,Potency
1,COC(=O)C1=C(c2ccc(F)cc2OCc2ccccc2)C[C@@H]2CC[C@H]1N2C(=O)NCc1ccc(OC)c(OC)c1,"inconclusive [inhibitor, single point]"
2,CCOc1cc(CNCCc2ccccc2F)ccc1OC,inactive
3,COC(=O)C1=C(c2cccc(OCc3ccccc3)c2)C[C@@H]2CC[C@H]1N2C(=O)NCc1ccc2[nH]ccc2c1,"inconclusive [inhibitor, single point]"
4,COC(=O)C1=C(c2ccc(OCc3ccccc3)cc2)C[C@@H]2CC[C@H]1N2C(=O)NCc1ccccc1,"inconclusive [inhibitor, partial curve, poor fit]"
5,CCCCCCC(=O)N/N=C/c1c(O)n(C(C)CC)c(=S)[nH]c1=O (stereo not given),"inconclusive [inhibitor, single point]"
6,CC(C)(O)/C=C/C(=O)C(C)(O)C1C(O)CC2(C)C3CC=C4C(C=C(O)C(=O)C4(C)C)C3(C)C(=O)CC12C (stereo not given),"inconclusive [inhibitor, full curve, poor fit]"
7,CC(N)Cc1cn(Cc2ccccc2)c2ccccc12 (stereo not given),"inconclusive [inhibitor, partial curve, poor fit]"
8,COC(=O)C1=C(c2cc3ccccc3s2)C[C@@H]2CC[C@H]1N2C(=O)N1CCCCC1,"inconclusive [inhibitor, partial curve, poor fit]"
9,COc1ccc(CNc2oc(-c3cccc4ccccc34)nc2P(=O)(OC)OC)cc1,"inconclusive [inhibitor, single point]"
10,O=c1[nH]c(=S)n(Cc2ccc(F)cc2)c(O)c1/C=N/N1CCCCCC1,inactive
11,O=C(O)c1cccc2c1NC(c1cccc([N+](=O)[O-])c1)C1CC(Sc3ccccc3[N+](=O)[O-])C(Cl)C21 (stereo not given),"inconclusive [inhibitor, single point]"
12,Brc1ccc2[nH]cc(/C=N/N3CCCCC3)c2c1,"inconclusive [inhibitor, single point]"
13,c1ccc(N2Cc3ccccc3-n3nncc3C2)nc1,inactive
14,CCc1ccc2c(CN3CC=C(c4ccccc4)CC3)cc(=O)oc2c1,"inconclusive [inhibitor, single point]"
15,CCOC(=O)CC1c2ccccc2-n2nncc2CN1C (stereo not given),inactive
16,CCCCCCCCN1C(=O)[C@H](CC(=O)NCCc2ccccc2OC)C[C@@]2(C(=O)OC)CCCCC=C12,"inconclusive [inhibitor, single point]"
17,Cc1ccc(NP(=O)(c2ccccc2)c2nc3ccccc3s2)cc1 (stereo not given),"inconclusive [inhibitor, single point]"
18,COc1cccc(C(c2nnnn2-c2c(C)cccc2C)N2CCC(n3c(=O)[nH]c4ccccc43)CC2)c1OC (stereo not given),"inconclusive [inhibitor, single point]"
19,Cc1ccc(/C=C/C2=NN(Cc3ccc(Cl)c(Cl)c3)C(=O)CC2)cc1,"inconclusive [inhibitor, partial curve, poor fit]"
20,O=C(c1ccc(Cl)cc1)C1CCCN(Cc2cccc3cnccc23)C1 (stereo not given),"inconclusive [inhibitor, single point]"

row,SMILES,Potency
1,Cc1c(CCNS(=O)(=O)c2ccccc2)sc2nc(-c3ccc(Cl)cc3)nn12,"inconclusive [inhibitor, partial curve]"
2,O=C1NC(=O)C(=Cc2ccc(-c3cc(Cl)ccc3[N+](=O)[O-])o2)C(=O)N1,inactive
3,O=c1c2ccccc2nc(Cc2cccc([N+](=O)[O-])c2)n1-c1ccc(O)cc1,"inconclusive [inhibitor, single point]"
4,CC(C)c1ccc(O)c(CN2CCN(c3ccccc3)CC2)c1,"inconclusive [inhibitor, single point]"
5,O=C1NC(=O)N(c2ccc(Cl)cc2)C(=O)/C1=C\c1ccc(Sc2nc3ccccc3[nH]2)o1,"inconclusive [inhibitor, full curve]"
6,CCOC(=O)C1(CCOc2ccccc2)CCN(Cc2ccc(C)s2)CC1,"inconclusive [inhibitor, partial curve, poor fit]"
7,Nc1c(C(=O)NCC2CCCO2)c2nc3ccccc3nc2n1Cc1ccco1 (stereo not given),"inconclusive [inhibitor, single point]"
8,CNC(=O)Oc1cccc(-c2cn3cc(Cl)ccc3n2)c1,"inconclusive [inhibitor, partial curve, poor fit]"
9,CCN(CC)Cc1c[nH]c2ccccc12,inactive
10,Cc1cccc(NP(=O)(Oc2ccccc2F)Oc2ccccc2F)c1C,"inconclusive [inhibitor, partial curve, poor fit]"
11,O=P(Nc1cccc(F)c1)(Oc1ccccc1F)Oc1ccccc1F,active: 11.2 µM
12,O=C(NCc1ccccc1)N1CCc2c(sc3c2CCCC3)C1c1ccccc1 (stereo not given),"inconclusive [inhibitor, partial curve, poor fit]"
13,Nc1ccccc1C(=O)c1ccccc1,inactive
14,Cc1ccc2cccc(OC(=O)N(C)c3ccccc3)c2n1,"inconclusive [inhibitor, partial curve, poor fit]"
15,CN1CCN(c2ccc([N+](=O)[O-])cc2Cl)CC1,"inconclusive [inhibitor, partial curve, poor fit]"
16,C/C(=N\Nc1ccccc1)c1c(O)n(C)c(=O)n(C)c1=O,"inconclusive [inhibitor, full curve, poor fit]"
17,O=C(Nc1cccc(F)c1)[C@@H](c1ccccc1)N1Cc2ccccc2C1=O,"inconclusive [inhibitor, partial curve, poor fit]"
18,Cc1cc([N+](=O)[O-])c2ccccc2[n+]1[O-],"inconclusive [inhibitor, full curve, poor fit]"
19,O=C1NCN(c2ccccc2)C12CCN(C(c1cccc3ccccc13)c1nnnn1C1CCCC1)CC2 (stereo not given),"inconclusive [inhibitor, single point]"
20,Cc1ccc(-n2c(O)c(/C=N/Nc3ccccc3)c(=O)[nH]c2=O)cc1C,"inconclusive [inhibitor, full curve]"
